# Measurements from PubChem BioAssay AID1345082 (National Center for Advancing Translational Sciences (NCATS), 2018).
# Hit rate of the full screen: of about 94,000 compounds, about 4,000 (4.3%) were called active. Inconclusive means that the source gave no clear call. Such entries were picked first, then a sample of the others. The call rests on the fitted dose curve; in most records, active means well fitted inhibition curve with a large enough effect; inconclusive means small, poorly fitted or top-dose-only effect; inactive means no such curve, though single readings can be large or run the other way. A potency beside an inconclusive call is a rough fit, not a confirmed value.
# Experiment: Cytotoxic Profiling in NIH 3T3 Cell Line of Diverse Libraries Using Quantitative High-Throughput Screening; further: nearly all actives have a fitted effect of over 55% in size
# Details: NIH 3T3 viability, CellTiter-Glo ATP luminescence, 48-72 h; series mostly up to 96.7 µM
# In short: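 NIH 3T3 cells at 400 cells/well received 23 nL of compound by pintool and were incubated 48 or 72 h at 37 °C. Viability was read as ATP-coupled CellTiter-Glo luminescence.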
# Potency means the concentration at half of the fitted maximal effect; tags describe the fitted curve by direction and shape.
row,SMILES,Potency
1,Cn1nc(-c2ccncc2)cc1NC(=O)c1ccc(F)cc1,"inconclusive: 39.8 µM [inhibitor, full curve]"
2,Cc1ccc(C)c(C(=O)N2CCOC(CCCc3ccccc3)C2)c1 (configuration not stated),"inconclusive: 11.2 µM [inhibitor, full curve, poor fit]"
3,O=C(Cc1cccs1)N1CC(c2noc(C3CCCN3CC3CC3)n2)C1 (configuration not stated),inactive
4,Cc1cc(N2CCN(C(=O)CCCS(N)(=O)=O)CC2)cc(C)n1,inactive
5,COc1cccc(C(O)CNC(=O)C2CCN(C(=O)C3CCC3)CC2)c1 (configuration not stated),inactive
6,CCc1nc2c(c(-c3ccc(Cl)cc3)n1)CN(C(=O)COC)CC2,inactive
7,O=C(c1ccc(F)c(Cl)c1)N1CCC2(CC1)N=C(c1ccccc1)NO2,inactive
8,CCCN(C)c1nccnc1OC1CCN(C(=O)CC)C1 (configuration not stated),inactive
9,Cc1ccc(C2=NC3(CCN(C(=O)c4ccc(F)cc4F)CC3)ON2)cc1,inactive
10,COc1ccc(C2Cn3cnc(-c4nc(-c5ccsc5)no4)c3CO2)cc1 (configuration not stated),"inconclusive: 70.8 µM [inhibitor, single point]"
11,Cc1cnc(C)n1CCNC(=O)c1ccsc1,inactive
12,Cn1nc(C(=O)N2CCCCCC2c2nnc(-c3ccccc3)o2)c2ccccc21 (configuration not stated),"inconclusive: 50.1 µM [inhibitor, partial curve, poor fit]"
13,CC1=C[C@@H](CN2CCC(C(N)=O)CC2)[C@H](C(C)C)C[C@H]1Cc1nnc(C(C)(C)C)o1,"inconclusive: 112 µM [inhibitor, partial curve, poor fit]"
14,NCCC(=O)N1CCCC2(Cc3ccccc3CN2C(=O)c2cccc(Cl)c2)C1 (configuration not stated),"inconclusive: 50.1 µM [inhibitor, partial curve, poor fit]"
15,CSc1ccc(-c2cccc(CN3CCC(N[S+](=O)([O-])CCC(F)(F)F)CC3)c2)cc1,"inconclusive: 56.2 µM [inhibitor, partial curve, poor fit]"
16,Cc1noc(-c2ccccc2OC2CCN(C(=O)c3cnccc3C)C2)n1 (configuration not stated),inactive
17,COc1ccc(-c2cc(-c3cccnc3)c3cncn3c2)cn1,"inconclusive: 22.4 µM [inhibitor, full curve, poor fit]"
18,Cc1nc(CN2C[C@H](C(=O)N3CCN(CCO)CC3)C[C@@H]2c2ccc(F)cc2)cs1,"inconclusive: 112 µM [inhibitor, single point]"
19,O=C(C1CCCC1)N1CC[C@](O)(c2ccccc2)[C@H](N2CCCC2)C1,"inconclusive: 44.7 µM [inhibitor, partial curve, poor fit]"
20,COc1ccc(C(=O)N2CCCn3nc(C)c(-c4ccccc4C(C)C)c32)cn1,"inconclusive: 25.1 µM [inhibitor, full curve, poor fit]"
21,O=C(c1cc2c(s1)CN(C1CCCC1)C2)N1CCCN(c2ncccn2)CC1,"inconclusive: 70.8 µM [inhibitor, single point]"

row,SMILES,Potency
1,O[C@@H]1C[C@@H](c2nc(-c3ccc(F)cc3)no2)N(Cc2ccncc2)C1,"inconclusive: 79.4 µM [inhibitor, partial curve, poor fit]"
2,COc1cccc(-c2cccc(C(=O)N3CCN(C(=O)Cc4cccc(Cl)c4)CC3)c2)c1,"inconclusive: 50.1 µM [inhibitor, partial curve, poor fit]"
3,CN1CC[C@H](c2nc3ccccc3[nH]2)C1,"inconclusive: 126 µM [inhibitor, partial curve, poor fit]"
4,CC(C)C[C@@H](CO)n1cc(-c2cncnc2)nn1,inactive
5,NC(=O)CN1CCC(C(=O)NCc2cc(-c3ccc(Cl)cc3)on2)CC1,"inconclusive: 79.4 µM [inhibitor, partial curve, poor fit]"
6,COCC(=O)N1CCC(C(=O)N2CCC(c3ccccc3)CC2)CC1,inactive
7,Cc1ccc(NC(=O)c2cc3c(N4CCSCC4)nc(C)cn3n2)cc1,"inconclusive: 39.8 µM [inhibitor, partial curve]"
8,COc1cccc(-c2noc(CC3CCN(C(=O)c4ccc(OC)c(OC)c4)CC3)n2)c1,"inconclusive: 25.1 µM [inhibitor, partial curve]"
9,O=C(Cc1cccs1)N1CCC2(CC1)CC(N(Cc1ccc(F)cc1)C1CC1)CCO2 (configuration not stated),"inconclusive: 44.7 µM [inhibitor, partial curve, poor fit]"
10,CNC(=O)[C@@H](C1CC1)N1CCC[C@H]1C(=O)NCc1ccccn1,inactive
11,Cc1nnc(-c2cc(-c3cccc(CO)c3)ccn2)n1CCN1CCOCC1,"inconclusive: 89.1 µM [inhibitor, partial curve, poor fit]"
12,N#Cc1ccc(CN2CCC3(COC(=O)N3Cc3ccccc3)C2)cc1 (configuration not stated),"inconclusive: 50.1 µM [inhibitor, partial curve, poor fit]"
13,CCCOc1cccc(-c2cc3c(cc2OC)C(CO)CC(C)(C)CO3)c1 (configuration not stated),active: 31.6 µM
14,Cc1nc(N2CCC(NC(=O)c3nccc4ccccc34)CC2)cc(C(F)(F)F)n1,"inconclusive: 28.2 µM [inhibitor, full curve, poor fit]"
15,CCNC(=O)N[C@H]1C[C@@H](Cc2cc(C(C)(C)C)on2)C1(C)C,"inconclusive: 79.4 µM [inhibitor, partial curve, poor fit]"
16,C=CCNC(=O)CCc1c(CC)nn(-c2ccccc2)c1Oc1ccccc1OC,"inconclusive: 50.1 µM [inhibitor, partial curve, poor fit]"
17,Cc1cn2nc(C(=O)NCc3cccc(C(F)(F)F)c3)cc2c(N2CCSCC2)n1,"inconclusive: 44.7 µM [inhibitor, partial curve, poor fit]"
18,COCCN1CCC2(C1)CN(C)c1ccc(C(=O)Nc3ccc(F)cc3)cc12 (configuration not stated),"inconclusive: 79.4 µM [inhibitor, partial curve, poor fit]"
19,Cc1ccccc1C(=O)N1CCC(C(=O)N2CCC(c3ccccc3)CC2)CC1,"inconclusive: 44.7 µM [inhibitor, partial curve, poor fit]"
20,O=C(c1ccc(Cl)cc1)N1CCN(c2ccc3nnc(C4CC4)n3n2)CC1,"inconclusive: 44.7 µM [inhibitor, partial curve, poor fit]"
21,CCn1cc(-c2ccc(C)cc2)cc1C(=O)NCC1CCCO1 (configuration not stated),"inconclusive: 39.8 µM [inhibitor, partial curve]"

row,SMILES,Potency
1,Cc1ccccc1-c1nc(-c2c(C)noc2C)cc2cc(CO)oc12,"inconclusive: 89.1 µM [inhibitor, partial curve, poor fit]"
2,COc1ccc(NC(=O)CC2=C3CCCCC3N(Cc3ccccc3)C2=O)cc1F (configuration not stated),"inconclusive: 28.2 µM [inhibitor, partial curve]"
3,Cc1ccsc1-c1[nH]nc2ncc(-c3cn[nH]c3)nc12,"inconclusive: 10 µM [inhibitor, full curve, poor fit]"
4,COc1ccc(NC(=O)c2nc3sccn3c2-c2ccccc2)cc1,"inconclusive: 89.1 µM [inhibitor, partial curve, poor fit]"
5,COc1cccc(-c2cc3c(ccn3CC3CCN(C)CC3)c(N3CCOCC3)n2)c1,active: 25.1 µM
6,CCCc1ccc(CN2CC[C@@H]3[C@@H](CCC(=O)N3CCc3cnc[nH]3)C2)o1,inactive
7,COC(=O)c1cccc(NC(=S)N[C@H]2CO[C@H]3[C@@H]2OC[C@H]3OC(=O)Nc2ccc(Oc3ccccc3)cc2)c1,"inconclusive: 44.7 µM [inhibitor, partial curve, poor fit]"
8,Cc1ccc(CN2CCc3nc(C(=O)Nc4nc(C)cs4)oc3CC2)cc1,"inconclusive: 35.5 µM [inhibitor, partial curve, poor fit]"
9,COc1cccc(C(=O)N2CC(N3C(=O)c4c(c(C)nn4-c4ccccc4)C3C)C2)c1 (configuration not stated),"inconclusive: 50.1 µM [inhibitor, partial curve, poor fit]"
10,CN1CC(=O)N(C2CCCC2)Cc2c(NCc3cccc(F)c3)ncnc21,"inconclusive: 44.7 µM [inhibitor, partial curve, poor fit]"
11,COc1ccc(-c2cccc(C(=O)N3CCC(NC(=O)c4ccccc4C)CC3)c2)nn1,inactive
12,O=C(NCc1ccncc1)C1c2ccccc2C(=O)N(Cc2ccccc2)C12CCCC2 (configuration not stated),"inconclusive: 70.8 µM [inhibitor, single point]"
13,O=C(Nc1ccc2ncnc(N3CCCCC3)c2c1)c1ccccc1Br,"inconclusive: 44.7 µM [inhibitor, partial curve, poor fit]"
14,COc1ccc(NC(=O)c2cccc3c2CCN3C(=O)c2ccc(F)cc2)cc1,inactive
15,O=C(O)c1ccc(CN2CCC[C@H]2c2nc(-c3ccc(F)cn3)no2)cc1,inactive
16,COc1ccccc1-c1cccc(CN2CCCC(C(=O)NCC3CC3)C2)c1 (configuration not stated),"inconclusive: 44.7 µM [inhibitor, partial curve, poor fit]"
17,O=C1COc2ccc(-c3ccc4c(c3)OCO4)nc2CN1Cc1ccc(C(F)(F)F)cc1,"inconclusive: 25.1 µM [inhibitor, full curve, poor fit]"
18,Cc1ccc(C(=O)N2CCCCCCNC(=O)[C@@H]3C[C@@H](c4nc(Cc5ccccc5)no4)C[C@@H]32)s1,"inconclusive: 39.8 µM [inhibitor, partial curve, poor fit]"
19,Cc1ccc(CNC(=O)C2CCCCC(=O)N2Cc2ccccc2)cc1 (configuration not stated),"inconclusive: 50.1 µM [inhibitor, partial curve, poor fit]"
20,Cc1ccc(C2c3cc(OCc4nc(C(=O)N5CCCC5)co4)ccc3CCN2C(=O)C2CC2)cc1 (configuration not stated),"inconclusive: 44.7 µM [inhibitor, partial curve, poor fit]"
